The text below walks through data of PubChem BioAssay AID485344 (National Center for Advancing Translational Sciences (NCATS), 2010).

Structures are written as SMILES. Several values for one entry are separate records, joined by “and”; a condition that tells them apart may be missing. Equal entries are not always repeated. In all, about 340,000 compounds went through this assay and about 6,900 (2%) were called active. No stated cut-off is given here; in the data, active means inhibition above about 30%; inactive means below that, where a call was filed. This is a selection; strong and weak results do not stand in their true shares. Where no call is shown, the source filed none.

This test concerns the target D(2) dopamine receptor (Homo sapiens) (UniProt P14416). Description: HTS Assay for Allosteric Antagonists of the Human D2 Dopamine Receptor: Primary Screen for Antagonists. Further: 0% is about no effect. The conditions noted are these: HEK293 TREx D2 cells, calcium flux, dopamine EC80; at 10 µM; stronger effect = higher value. The procedure, abridged: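 Read-out: kinetic calcium fluorescence (1 cycle/s) in inducible HEK293 T-REx D2 cells after an EC80 dopamine addition that followed 180 s compound preincubation. Loss of the dopamine response indicates antagonism.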
UniProt P14416, sequence (P14416 whole entry, looked up): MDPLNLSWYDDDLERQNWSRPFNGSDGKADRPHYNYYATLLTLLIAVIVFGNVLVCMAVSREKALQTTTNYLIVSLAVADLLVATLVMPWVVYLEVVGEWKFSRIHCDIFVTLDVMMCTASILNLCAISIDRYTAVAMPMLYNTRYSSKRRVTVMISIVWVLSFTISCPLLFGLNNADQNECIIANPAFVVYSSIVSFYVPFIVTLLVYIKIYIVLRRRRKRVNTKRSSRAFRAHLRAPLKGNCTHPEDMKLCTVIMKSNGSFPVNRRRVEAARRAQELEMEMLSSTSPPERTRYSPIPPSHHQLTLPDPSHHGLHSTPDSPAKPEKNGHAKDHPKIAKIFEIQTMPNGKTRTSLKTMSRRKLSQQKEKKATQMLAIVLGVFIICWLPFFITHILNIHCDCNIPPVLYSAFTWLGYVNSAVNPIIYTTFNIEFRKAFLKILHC
In general terms: Calcium flux is commonly read through the fluorescence of an indicator in the cells.
The term inhibition denotes the change of the read-out against control, counted positive when it falls. For the molecule `COc1ccc(/C=N/NC(=O)c2nn(-c3ccc(C)c(C)c3)c(=O)c3ccccc23)cc1`, the inhibition was active: 44.7%.
As for `Cc1ccc(Cl)cc1-n1ncc2c(NC3CCCCC3)ncnc21`, the inhibition is -21.9%.
In the case of `N#Cc1cccc(Nc2ncnc3c2cnn3-c2cccc(Cl)c2)c1`, the inhibition amounted to 1.15%.
As to `CCOC(=O)C1CCCN(S(=O)(=O)c2ccc3c(c2)CCN3C(=O)CC)C1` (stereo unspecified), the inhibition was found to be 10.8%.
With `O=C(CSc1nncn2c1cc1occc12)Nc1ccccc1C(F)(F)F` the figure was -0.716%.
Take `Cc1cccc2sc(N3CCN(C(=O)CS(=O)(=O)c4ccc(F)cc4)CC3)nc12`: the inhibition was determined as 12%.
As to `CCOC(=O)c1c(C)[nH]c(CCC(=O)Nc2c(Cl)cc(OC)cc2OC)c1C`, the inhibition is -9.48%.
With `Cc1ccc(C(=O)O)cc1-n1c(C)ccc1-c1ccccc1` the figure was -2.56%.
The same measure for `COC(=O)c1cc(NC(=O)C2CCCN(S(=O)(=O)c3c(C)n[nH]c3C)C2)cc(C(=O)OC)c1` (stereo unspecified): -12.5%; for `COc1ccc(C)cc1NC(=O)Cn1c(=O)nc(-c2ccccc2F)c2cc(Cl)ccc21`: 20.6%.
With `CCN1CCN(C(=O)c2ccccc2N(C)S(=O)(=O)c2ccc(C)cc2)CC1` the figure was active: 40.9%; with `COCc1cc(C)nc2sc(C(=O)Nc3ccc(OC(F)(F)F)cc3)c(N)c12`, -4.52%; with `O=C(Nc1ccnn1C1CCN(Cc2ccccc2OC(F)F)CC1)c1cccc(F)c1`, active: 32.1%.
`CN(C)c1ccc(C(=O)N2CCCC(N3CCN(Cc4ccc5c(c4)OCO5)CC3)C2)cc1` (stereo unspecified): the inhibition is active: 31.6%.
With `Cc1ccc(C)c(OCCn2cc(C(=O)c3cccs3)c3ccccc32)c1` the figure was 5.71%; with `Cc1cccc(C(=O)N2CCc3cc(CNC(=O)c4ccc(Br)o4)ccc32)c1`, 11.2%; with `O=[N+]([O-])c1ccc(S(=O)(=O)NCc2nc3cccnc3n2Cc2ccccc2Cl)cc1`, 19.1%.
With `COc1ccc(OC)c(NC(=O)Cn2c(=O)n(CC3CCCO3)c(=O)c3cc(OC)c(OC)cc32)c1` (stereo unspecified) the figure was 11.5%; with `COc1ccc(NC(=O)CN(C)S(=O)(=O)c2ccc3c(c2)CCC(=O)N3)c(OC)c1`, 20.8%; with `CCOc1ccccc1CNC(=O)CN1C(=O)CSc2ccc(S(=O)(=O)N3CCOCC3)cc21`, -22.1%.
The same measure for `CCN1CCC[C@H]1CNC(=O)c1c(O)c(Cl)cc(Cl)c1OC`: active: 76%; for `O=C(c1ccc2c(c1)CCN2S(=O)(=O)c1ccccc1)N1CCN(c2cccc(Cl)c2)CC1`: -11.4%; for `CCOC(=O)CNc1nc2ccccc2n2c(C)nnc12`: -16.3%.
`CCc1ccc(NC(=O)CSc2nc3c(sc4ccccc43)c(=O)n2CCCOC)cc1`: the inhibition turned out to be 19.6%.
With `Cc1ccc(CNC(=O)c2cnc(N3CCCCC3)c3ccccc23)cc1` the figure was -2.58%.
With `CC1CCC(NC(=O)c2ccc3c(c2)N(Cc2ccccc2)C(=O)c2ccccc2S3(=O)=O)CC1` (stereo unspecified) the figure was 12.4%; with `COc1ccccc1CNC(=O)CCc1c(C)nc2c(c(C)nn2-c2ccc(C)c(C)c2)c1C`, 10.8%.
With `CCCCn1c(=N)c(S(=O)(=O)c2ccc(Cl)cc2)cc2c(=O)n3cccc(C)c3nc21` the figure was 14.9%; with `CC(C)(C)OC(=O)N1CCC(c2c(C(=O)NCc3ccccc3)cnn2-c2ccccc2)CC1`, -12.7%; with `Cc1cccc(Nc2c(-c3cccs3)nc3nc(C)cc(C)n23)c1`, 12.5%.
`CCc1ccc(CNC(=O)c2cc3c(=O)n(CC)c4ccccc4c3s2)cc1`: the inhibition came out at 6.13%.
With `O=C(NC(=O)c1ccccc1)Nc1ccc(-n2nc(C(F)(F)F)cc2C(F)(F)F)cc1` the figure was -13.1%.
The same measure for `COc1ccc(NC(=O)C(=O)NCCN2CCN(C(=O)c3cccs3)CC2)cc1`: active: 44.4%; for `Cc1ccc(NC(=O)CSC2=Nc3ccccc3C3=NC(Cc4ccccc4)C(=O)N23)cc1C` (stereo unspecified): -1.46%; for `CCCCN(CCCNC(=O)c1ccc(Sc2ccc(Cl)cc2)c(NC(C)=O)c1)c1ccccc1`: -17.2%.
With `Cc1cc2c(cc1S(=O)(=O)CCC(=O)N1CCCC(C)C1)OCC(=O)N2` (stereo unspecified) the figure was -3.45%; with `Cc1ccc(-n2ncc(C(=O)NCCN3CCOCC3)c2C2CCN(C(=O)OC(C)(C)C)CC2)c(C)c1`, -0.89%.
`COCCn1c(CCC(=O)Nc2ccc(C)c(Cl)c2)nc2cccnc21`: the inhibition worked out at 20.6%.
Regarding `N#Cc1cc2ccccc2nc1SCc1cccnc1`, the inhibition is active: 30.5%.
With `Clc1ccc2nc(NCc3ccccc3)c3nncn3c2c1` the figure was -12.6%.
The same measure for `CCSc1ncc(Cl)c(C(=O)Nc2ccc(S(=O)(=O)N3CCC(C)CC3)cc2)n1`: -3.62%; for `Cc1c(Cl)cccc1NC(=O)Cn1cc(C(=O)C2CCCCC2)c2ccccc21`: 4.84%.
With `COc1ccc2cc(-c3nc(Cl)c4c5c(sc4n3)CCCC5)c(=O)oc2c1` the figure was 6.38%; with `O=C(Nc1cc(S(=O)(=O)N2CCOCC2)ccc1N1CCCC1)C1CC1`, active: 53.6%.
For the molecule `COc1cccc(CNc2nccn(-c3cc(C)cc(C)c3)c2=O)c1`, the inhibition was -6.86%.
With `CN(C)c1ccc(-c2nc3cnccn3c2Nc2cccc(C(F)(F)F)c2)cc1` the figure was -1.87%; with `COc1ccc(NC(=O)Cn2c(=O)n(Cc3ccco3)c(=O)c3cc(OC)c(OC)cc32)cc1`, -4.51%.
The same measure for `Cc1ccc(S(=O)(=O)NCC(c2ccc(N(C)C)cc2)N2CCc3ccccc32)cc1C` (stereo unspecified): -6.81%; for `Cc1cccc(C)c1NC(=O)CSc1nc2ncccc2o1`: 14.7%.
For the molecule `CCc1ccc(CNC(=O)C2CCN(c3nc4ccccc4nc3C(F)(F)F)CC2)cc1`, the inhibition was 1.69%.
The same measure for `COc1ccc(Cn2c(CCC(=O)Nc3cccc(OC)c3)nc3cccnc32)cc1`: 4.15%; for `CC(=O)N1CCc2cc(CNC(=O)Nc3cc(Cl)ccc3C)ccc21`: 2.96%; for `Cc1ccc(NC(=O)c2c(NC(=O)Cc3ccccc3)sc3c2CCC3)cc1`: 8%.
As for `CCOC(=O)c1c(C(=O)OCC)c(C)n(CCc2ccc(OC)c(OC)c2)c1C`, the inhibition is active: 33.5%.
With `CCN1C(=O)c2ccccc2Sc2ccc(NC(=O)Nc3ccccc3OC)cc21` the figure was -13.1%; with `CC(=O)c1cccc(NC(=O)C2=CC(c3ccc4c(c3)OCO4)=NS(=O)(=O)N2C)c1`, 8.29% and active: 48.4%; with `Cc1cccc(CNC(=O)C(=O)Nc2ccccc2C)c1`, -7.99%.
As for `Fc1ccccc1-n1ncc2c1ncn1nc(-c3ccccc3Cl)nc21`, the inhibition was 12%.
The same measure for `CC1CCCCN1CCCNC(=O)c1[nH]c2ccccc2c1Sc1ccc(Cl)cc1` (stereo unspecified): 13.3%; for `COc1ccccc1CNC(=O)CCC1N=C2c3ccccc3N=C(SCC(N)=O)N2C1=O` (stereo unspecified): -9.71%.
The same measure for `Cc1ccc(CNC(=O)c2ccc(CSCc3ccccc3Cl)o2)cc1`: 20.8%.
